# Source: article PMC6919601, “Identification of Plasmodium dipeptidyl aminopeptidase allosteric inhibitors by high throughput screening” (PLoS ONE, 2019)
# About 230 (0.21%) of roughly 110,000 compounds showed an effect of 50% or more. The list shows a part of the results.
# Molecular target: DPAP1 (Plasmodium falciparum, UniProt Q8IIJ9)
# Experiment: primary screen, percent inhibition; read by cleavage of a fluorogenic dipeptide substrate; higher = more effect of the substance
# Parameters: species or system P. falciparum D10 trophozoite lysates; single well
# Protocol: HTS was performed in black 384-well plates. The first and last two columns of each plate contained our negative (DMSO) and positive (10 μM JCP410) controls, and the 20 central columns the test compounds at 10 μM. Compounds were first diluted 50-fold into assay buffer (50 mM sodium acetate, 5 mM MgCl2, 10 mM β-mercaptoethanol, and 0.1% CHAPS, pH 5.5) from a 10 mM DMSO stock plates. One microliter of this 200 μM intermediate stock plate was dispensed into the assay plate. […] After 30 min, the reaction was quenched with 20 μL of 0.5 M acetic acid, and the fluorescent intensity measured at 523 nm (λex = 492 nm) using an Analyst HT multimode plate reader (Molecular Devices).
# 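Further: 30 min substrate incubation versus DMSO and 10 µM JCP410 controls.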
# Sequence of DPAP1 (Q8IIJ9 whole entry, looked up): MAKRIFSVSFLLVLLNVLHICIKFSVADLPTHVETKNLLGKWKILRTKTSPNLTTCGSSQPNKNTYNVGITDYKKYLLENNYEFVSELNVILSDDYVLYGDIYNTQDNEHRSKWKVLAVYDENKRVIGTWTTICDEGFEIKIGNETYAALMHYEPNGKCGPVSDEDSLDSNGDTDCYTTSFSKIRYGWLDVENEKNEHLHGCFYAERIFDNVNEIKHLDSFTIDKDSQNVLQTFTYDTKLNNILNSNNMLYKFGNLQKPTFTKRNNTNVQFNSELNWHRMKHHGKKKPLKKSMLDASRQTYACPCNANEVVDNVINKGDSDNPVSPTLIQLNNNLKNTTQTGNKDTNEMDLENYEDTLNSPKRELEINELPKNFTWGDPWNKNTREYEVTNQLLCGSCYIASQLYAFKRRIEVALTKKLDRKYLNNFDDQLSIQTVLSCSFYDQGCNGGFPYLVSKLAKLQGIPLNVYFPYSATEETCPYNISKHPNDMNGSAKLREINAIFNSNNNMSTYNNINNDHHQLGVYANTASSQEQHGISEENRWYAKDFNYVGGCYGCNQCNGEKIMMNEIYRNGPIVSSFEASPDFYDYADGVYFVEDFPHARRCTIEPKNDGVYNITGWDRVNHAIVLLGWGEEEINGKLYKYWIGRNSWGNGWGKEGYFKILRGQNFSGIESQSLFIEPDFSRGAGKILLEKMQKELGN
row,SMILES,% Inhibition @ 10 uM [%]
1,O=Cc1ccc(OCc2ccccc2F)cc1,-0.597
2,NCc1nnnn1-c1ccccc1,2.19
3,CC(CCN1CCCC(C(N)=O)C1)c1ccccc1 (stereo not drawn),0.217
4,Cc1coc2c(C)c3oc(=O)c(CC(=O)NCc4ccc(F)cc4)c(C)c3cc12,2.54
5,Cc1c(C(N)=O)c(-c2ccccc2)nn1-c1ccccc1,3.48
6,CN(C)CCCNC(=O)/C(=C\c1ccc(-c2ccc(Cl)cc2)o1)NC(=O)c1ccccc1,-12.7
7,Clc1cccc(OCCCN2CCCC2)c1,1.35
8,COCCCNc1nc2c(c(=O)n(C)c(=O)n2C)n1Cc1c(Cl)cccc1Cl,-5.9
9,O=C(NC1CCCCCC1)c1cccc([N+](=O)[O-])c1,-2.6
10,COc1ccc(CN2CCN(c3cccc(Cl)c3)CC2)cc1Br,1.17
11,Cc1ccc(C2=NN(CC(=O)N3CCN(Cc4ccccc4)CC3)C(=O)CC2)cc1,-2.99
12,Cc1cccc(C(=O)Nc2ccc(S(=O)(=O)Nc3nccs3)cc2)c1,3.53
13,CC(C)C[C@H](NC(=O)N(C)c1ccccc1)C(=O)NCC#N,-3.48
14,C=C(C)CN(CC)C1CCN(Cc2ccccc2)CC1,-5.94
15,CCOCC(=O)Nc1nc2ccc(OCC)cc2s1,-6.05
16,CC1=C(C(=O)OC2CCCC2)C(c2ccccc2Cl)C2=C(O)CC(C)(C)CC2=N1 (stereo not drawn),4.74
17,NC(=O)CC(Nc1c2ccccc2nc2ccccc12)C(=O)O (stereo not drawn),-1.69
18,CN(Cc1ccccc1)C(=O)c1cc2c(=O)n3ccccc3nc2n1C,-1.55
19,CCC(=O)Nc1ccc(Cl)c(NC(=O)c2ccc(C)cc2C)c1,-0.519
20,Cc1ccc(Cl)cc1N1CCN(C(=O)C2C3CCC(C3)C2C(=O)O)CC1 (stereo not drawn),2.25
21,CC1CCN(S(=O)(=O)c2ccc3c(ccn3CC(=O)NCCc3ccc(Cl)cc3)c2)CC1,-0.899
22,CC(=O)N(C)c1ccc(NC(=O)Cc2cccc3ccccc23)cc1,-1.04
23,O=C(COc1ccccc1)Nc1ncc(Cc2cc(Cl)ccc2Cl)s1,9.47
24,CCCCOC(=O)c1cc(-c2ccc(C=C3C(=O)N(C)C(=O)N(C)C3=O)o2)ccc1Cl,13.2
25,Cc1ccc(-c2c3c(=O)n(C)c(=O)n(C)c3c3c(-c4cccnc4)nc4ccccc4n23)cc1,-1.43

row,SMILES,% Inhibition @ 10 uM [%]
1,O=S(=O)(Nc1ccc(N2CCOCC2)cc1)c1ccccc1,3.25
2,COc1cc(C)c(Cl)cc1S(=O)(=O)NCC1CCCO1 (stereo not drawn),0.245
3,C1CCC(Oc2nc(OC3CCCCC3)nc(OC3CCCCC3)n2)CC1,-0.215
4,CCOc1ccc(-c2nn(-c3ccccc3)cc2C2C(C(=O)OC)=C(C)N=C(C)/C2=C(/O)OC)cc1 (stereo not drawn),1.52
5,CSc1nc2c(c(=O)n1C1CCOC(C)(C)C1)C1(CCCCC1)Cc1ccccc1-2 (stereo not drawn),-1.99
6,CN(C)CCN1C(=O)C(O)=C(C(=O)c2cc3ccccc3o2)C1c1ccc(O)cc1 (stereo not drawn),0.198
7,OC1(c2ccc(Br)cc2)CCN(C2CC3CCC2C3)CC1 (stereo not drawn),1.38
8,CCOc1ccccc1C(=O)Nc1cc(C)ccc1O,5.44
9,N=C1/C(=C\c2ccc(-c3cccc(C(=O)O)c3)o2)C(=O)N=C2SC(N3CCCCC3)=NN12,4.88
10,CCOC(=O)C1=C(c2ccccc2)N=C2SCC(=O)N2C1c1ccc(OC)cc1 (stereo not drawn),1.26
11,COc1ccccc1CNC(=O)CS(=O)Cc1nc(-c2ccccc2Cl)oc1C (stereo not drawn),-1.05
12,Cc1cc(C)cc(CC2CC(=O)N(c3cc(C)ccc3C)C2=O)c1 (stereo not drawn),2.22
13,CN(C)CC[S+](O)c1ccccc1 (stereo not drawn),5.02
14,O=C(Cc1cccc(O)c1)Nc1cc(-c2ccncc2)cnc1O,-1.05
15,CN(C)/C=C/c1c(C#N)c(=O)ncn1Cc1ccccc1,-1.69
16,COc1ccc(C2C(C#N)=C(N)OC3=C2C(=O)CCC3)cc1COCC(F)(F)F (stereo not drawn),1.02
17,CCO/C(O)=C1/C(C)=Nc2ncnn2C1c1ccc(Cl)cc1 (stereo not drawn),1.73
18,Cc1ccc(/C=C2/SC(=O)N(Cc3cc4c(cc3Cl)OCO4)C2=O)o1,-0.62
19,C=CCOc1ccc(/C=C2\C(=O)N(CCOC)C(C)=C2C(=O)OCC)cc1,0.279
20,Cc1nc2sc3c(NC4CCCCC4)ncnc3c2c2c1COC(C)(C)C2,0.415
21,COc1ccc(C(=O)Nc2cc(Cl)ccc2C)cc1,6.6
22,COc1ccc(/C=C2/SC(=O)N(CC(=O)Nc3nccs3)C2=O)cc1,18.7
23,O=C(c1ccco1)N1CCN(C(=O)c2cnn(-c3ccc(F)cc3)c2-n2cccc2)CC1,-2.5
24,Cc1ccc(NC(=O)CN2C(=O)CSC2=O)cc1C,2.87
25,O=C1NC2(Oc3ccccc31)C(=O)Nc1ccccc12 (stereo not drawn),-2.17

row,SMILES,% Inhibition @ 10 uM [%]
1,CC(CNC(=O)Cn1ccc2cc(S(=O)(=O)N3CCCC3)ccc21)c1ccccc1 (stereo not drawn),-3.69
2,CCC(=O)NC(C)Cc1c[nH]c2ccccc12 (stereo not drawn),-4.72
3,Cc1cc(-c2ccccc2)nc2oc3c(=O)n(C)cnc3c12,4.41
4,Cc1cc(-c2ccc(C)c(S(=O)(=O)NCCN(CC(C)C)CC(C)C)c2)on1,-6.67
5,O=C(O)CCC(=O)Nc1ccc2nn(-c3ccccc3)nc2c1,-3.98
6,Cc1cccc(CN(C)CCc2ccccn2)c1,-1.62
7,COc1ccc(C)cc1NC(=O)c1ccc(C)cc1,2.93
8,CC(C)SC1=NSC2=NC(=O)/C(=C\c3coc4ccccc4c3=O)C(=N)N21,12.6
9,O=C(CSc1nc2c(c(=O)n1CCc1ccccc1)SCC2)NCC1CCCO1 (stereo not drawn),0.0147
10,CCc1ccccc1NC(=O)CN(C1CCCCC1)S(C)(=O)=O,-4.66
11,O=C(O)c1cccc(N2C(=O)c3cccc4cccc(c34)C2=O)c1,8.19
12,Cc1ccccc1OCc1nn2c(Cn3cnc4ccccc43)nnc2s1,-0.45
13,O=c1c(CN2CCSCC2)coc2c(Cl)cc(Cl)cc12,-7.93
14,CCNS(=O)(=O)c1ccc(-c2cccc(C(=O)N[C@@H](CC(C)C)C(=O)NCC#N)c2)s1,-1.82
15,COC(=O)C1=CN(Cc2ccc(F)cc2)C=C(C(=O)OC)C1c1ccc(OC)c(Br)c1,1.86
16,Cc1cc(C)n2nc3nc(N4CCOCC4)nc(-c4ccccc4)c3c2n1,3.34
17,c1ccc(-c2cc3ccsc3o2)cc1,16.9
18,CCN(CC)CCNC(=O)Cn1nc(C)n2c(cc3cc(C)ccc32)c1=O,0.0198
19,CC(=O)c1c(C)nc2ccc(Cl)cc2c1-c1ccccc1,-4.32
20,Cc1ccc(S(=O)(=O)N2CCC(C(=O)NCc3ccncc3)CC2)cc1,-3.74
21,O=C1/C(=C/c2ccc([N+](=O)[O-])cc2)N2CCC1CC2,-3.48
22,O=c1oc2c(cc(NS(=O)(=O)c3ccc(F)cc3)c3ccccc32)s1,-2.54
23,O=C(ON/C(=N/Cc1ccccc1)c1ccc(Cl)cc1)c1cccs1,-0.597
24,CC1C(C#N)=C(N)OC2=C1C(=O)CC(C)(C)C2 (stereo not drawn),-2.51
25,COc1ccc(Nc2nc(NCCO)c3ccccc3n2)c(OC)c1,-2.65

row,SMILES,% Inhibition @ 10 uM [%]
1,CCOC(=O)N1CCC(NC(=O)CCc2c(C)nc3c(-c4ccc(F)cc4)c(C)nn3c2C)CC1,-2.25
2,CCCCN(CC)S(=O)(=O)c1ccc2nc(O)cc(C(=O)NCCOC)c2c1,-4.97
3,CCOC(=O)N1CCC(NC(=O)C2CCN(Cc3nc(-c4ccccc4C)oc3C)CC2)CC1,-10.7
4,CCCN1CCN(C(=O)c2[nH]c3cc(OC)ccc3c2Sc2ccccc2)CC1,-3.76
5,COc1cc(C(=O)Nc2cccc(C)c2C)cc(OC)c1OC,-0.872
6,CN(Cc1ccco1)C(=O)CCNS(=O)(=O)c1cc(Br)cnc1N,-1.56
7,CC(C)(C)c1csc(NC(=O)c2ccco2)n1,-1.56
8,N#Cc1c2n(c3c(=O)n(Cc4ccccc4)cnc13)CCCCC2,4.16
9,CCOc1ccc(C(=O)Nc2cc(Cl)ccc2Cl)cc1,-0.63
10,CCO/C(O)=C1\C(C)=NC2=C(C(=O)CC(C)(C)C2)C1c1cccc(Cl)c1 (stereo not drawn),1.57
11,CCCCOc1ccc(/C=C2/SC(=O)N(CN3CCOCC3)C2=O)cc1,-4.21
12,COc1ccc(/C=c2\sc3nnc(-c4cc(OC)c(OC)c(OC)c4)n3c2=O)cc1,1.63
13,CCOc1ccc(C(=O)Nc2ccc(S(N)(=O)=O)cc2)cc1,0.147
14,COCCCNC(=O)c1sc2nc(-c3ccccc3)cn2c1C,-1.89
15,O=C(NCc1ccco1)c1ccc(COCC(F)(F)F)cc1,2.1
16,CCOC(=O)C1CCCN(C2CCN(CCc3ccccc3)CC2)C1 (stereo not drawn),-7.02
17,CC(=O)c1cccc(Oc2ncnc3sc4c(c23)CCCC4)c1,-2.42
18,CNC(=O)C1CCN(S(=O)(=O)c2ccc(C)cc2)CC1,0.161
19,Nc1cccc(NC(=O)c2ccc(Cl)cc2Cl)c1,-7.11
20,CCOc1ccc(C2C3=C(O)CC(c4ccc(Cl)cc4)CC3=NC(C)=C2C(=O)OC)cc1OC (stereo not drawn),0.146
21,CC(C)C[C@H](NC(=O)c1ccccc1-c1ccc(C(F)(F)F)cc1)C(=O)NCC(=O)NC(C)(C)C,22.9
22,CCCS(=O)(=O)N1CCCC(C(=O)NCC2CCCO2)C1 (stereo not drawn),1.62
23,CCSC1=C(C#N)C(c2sccc2C)CC(=O)N1 (stereo not drawn),4.11
24,Cc1nc2ccn(Cc3cccs3)c(=O)c2cc1C(=O)NCCC1=CCCCC1,-0.12
